The other results are listed elsewhere or left out. Cut-off read from the data, not from the text of the source: active = 3.2 or more and inactive = the rest. Most of these values are background signal.
Experiments:
Assay in all cases: enrichment score (SH2-bound / input frequency) (ratio); bacterial display of known human phosphotyrosine sites (pTyr-Var adds point mutants) read by sequencing; higher = stronger binding; tyrosines were phosphorylated by kinases first
Details in all cases: peptide library: pTyr-Var
SHP2 C-SH2 domain E139D = biological target: SHP2 C-SH2 domain E139D
[1] = biological target: SHP2 C-SH2 domain wild-type
SHP2 N-SH2 domain L43F = biological target: SHP2 N-SH2 domain L43F
SHP2 N-SH2 domain T42A = biological target: SHP2 N-SH2 domain T42A
SHP2 N-SH2 domain T52S = biological target: SHP2 N-SH2 domain T52S
[2] = biological target: SHP2 N-SH2 domain wild-type

Measured: enrichment score
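Note: displayed peptides selected on beads carrying the immobilized SH2 domain, with library peptides lacking any tyrosine serving as negative controls.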

B1: PDE6B_Y212_Y212H (peptide)
chain: DVFLKHLNFAT
inactive: SHP2 C-SH2 domain E139D 0.912 | [1] 0.845 | SHP2 N-SH2 domain L43F 0.73 | SHP2 N-SH2 domain T42A 0.854 | SHP2 N-SH2 domain T52S 0.888 | [2] 0.906

B2: PCDH19_Y1097_L1094V (peptide)
chain: RDVEQYVNNVN
inactive: SHP2 C-SH2 domain E139D 0.75 | [1] 0.456 | SHP2 N-SH2 domain L43F 0.73 | SHP2 N-SH2 domain T42A 0.491 | SHP2 N-SH2 domain T52S 0.509 | [2] 0.765

B3: PDE6A_Y275_V277A (peptide)
chain: LNCDRYSAGLL
inactive: SHP2 C-SH2 domain E139D 0.821 | [1] 0.823 | SHP2 N-SH2 domain L43F 0.626 | SHP2 N-SH2 domain T42A 0.742 | SHP2 N-SH2 domain T52S 0.682 | [2] 0.697

B4: PBRM1_Y54 (peptide)
chain: VCHELYNTIRD
inactive: SHP2 C-SH2 domain E139D 0.962 | [1] 1.12 | SHP2 N-SH2 domain L43F 0.974 | SHP2 N-SH2 domain T42A 0.953 | SHP2 N-SH2 domain T52S 0.818 | [2] 1.03

B5: PAX5_Y299 (peptide)
chain: PGPQSYPIVTG
inactive: SHP2 C-SH2 domain E139D 0.593 | [1] 0.58 | SHP2 N-SH2 domain L43F 0.768 | SHP2 N-SH2 domain T42A 0.613 | SHP2 N-SH2 domain T52S 0.528 | [2] 0.739

B6: PCDH19_Y1097 (peptide)
chain: RDLEQYVNNVN
inactive: SHP2 C-SH2 domain E139D 0.732 | [1] 0.651 | SHP2 N-SH2 domain L43F 0.804 | SHP2 N-SH2 domain T42A 0.591 | SHP2 N-SH2 domain T52S 0.795 | [2] 0.748

B7: PDE4DIP_Y45 (peptide)
chain: SREDIYKRNIE
inactive: SHP2 C-SH2 domain E139D 0.602 | [1] 0.504 | SHP2 N-SH2 domain L43F 0.614 | SHP2 N-SH2 domain T42A 0.47 | SHP2 N-SH2 domain T52S 0.591 | [2] 0.742

B8: PCDHGA1_Y890_YF (peptide)
chain: QHVPDYRQNVF
inactive: SHP2 C-SH2 domain E139D 0.922 | [1] 0.802 | SHP2 N-SH2 domain L43F 0.849 | SHP2 N-SH2 domain T42A 0.689 | SHP2 N-SH2 domain T52S 0.837 | [2] 0.839

B9: PCDHGA1_Y890_V894G_YF (peptide)
chain: QHVPDYRQNGF
inactive: SHP2 C-SH2 domain E139D 0.713 | [1] 0.679 | SHP2 N-SH2 domain L43F 0.669 | SHP2 N-SH2 domain T42A 0.618 | SHP2 N-SH2 domain T52S 0.65 | [2] 0.769

B10: PDE6B_Y219_Y219H_YF (peptide)
chain: NFATLHLKIFH
inactive: SHP2 C-SH2 domain E139D 2.81 | [1] 3.15 | SHP2 N-SH2 domain L43F 2.96 | SHP2 N-SH2 domain T42A 2.92 | SHP2 N-SH2 domain T52S 3.17 | [2] 2.82

B11: PCDHGA5_Y753 (peptide)
chain: AFLQTYSHEVS
active: SHP2 N-SH2 domain L43F 3.89 | SHP2 N-SH2 domain T52S 4.61
inactive: SHP2 C-SH2 domain E139D 1.3 | [1] 1.08 | SHP2 N-SH2 domain T42A 1.16 | [2] 1.31

B12: PAX2_Y73_R71T_YF (peptide)
chain: ILGTFYETGSI
inactive: SHP2 C-SH2 domain E139D 1.02 | [1] 0.88 | SHP2 N-SH2 domain L43F 0.866 | SHP2 N-SH2 domain T42A 0.69 | SHP2 N-SH2 domain T52S 0.877 | [2] 0.906

B13: PBRM1_Y1610_I1614N_YF (peptide)
chain: LHSEAYLKFNE
inactive: SHP2 C-SH2 domain E139D 1.42 | [1] 1.28 | SHP2 N-SH2 domain L43F 0.937 | SHP2 N-SH2 domain T42A 1.05 | SHP2 N-SH2 domain T52S 0.874 | [2] 0.871

B14: PCCA_Y143_A138T (peptide)
chain: TVHPGYGFLSE
inactive: SHP2 C-SH2 domain E139D 0.747 | [1] 0.602 | SHP2 N-SH2 domain L43F 0.664 | SHP2 N-SH2 domain T42A 0.624 | SHP2 N-SH2 domain T52S 0.693 | [2] 0.583

B15: PDE6A_Y275 (peptide)
chain: LNCDRYSVGLL
inactive: SHP2 C-SH2 domain E139D 0.839 | [1] 0.879 | SHP2 N-SH2 domain L43F 0.807 | SHP2 N-SH2 domain T42A 0.677 | SHP2 N-SH2 domain T52S 0.782 | [2] 0.978

B16: PAX5_Y73_T75R (peptide)
chain: ILGRYYERGSI
inactive: SHP2 C-SH2 domain E139D 1.36 | [1] 1.19 | SHP2 N-SH2 domain L43F 1.27 | SHP2 N-SH2 domain T42A 1.09 | SHP2 N-SH2 domain T52S 1.29 | [2] 1.42

B17: PCDHGA1_Y895_V894G_YF (peptide)
chain: FRQNGYIPGSN
inactive: SHP2 C-SH2 domain E139D 0.735 | [1] 0.642 | SHP2 N-SH2 domain L43F 0.676 | SHP2 N-SH2 domain T42A 0.593 | SHP2 N-SH2 domain T52S 0.664 | [2] 0.697

B18: PDE10A_Y300_L303P (peptide)
chain: KNKELYSDPFD
inactive: SHP2 C-SH2 domain E139D 0.702 | [1] 0.643 | SHP2 N-SH2 domain L43F 0.552 | SHP2 N-SH2 domain T42A 0.475 | SHP2 N-SH2 domain T52S 0.705 | [2] 0.664

B19: PBRM1_Y1610 (peptide)
chain: LHSEAYLKYIE
inactive: SHP2 C-SH2 domain E139D 0.925 | [1] 0.825 | SHP2 N-SH2 domain L43F 0.965 | SHP2 N-SH2 domain T42A 0.73 | SHP2 N-SH2 domain T52S 0.764 | [2] 0.621

B20: PBRM1_Y1289_E1287Q (peptide)
chain: VDDQIYYFRKP
inactive: SHP2 C-SH2 domain E139D 1.01 | [1] 0.932 | SHP2 N-SH2 domain L43F 1.06 | SHP2 N-SH2 domain T42A 0.791 | SHP2 N-SH2 domain T52S 0.927 | [2] 0.959

B21: PCDHGA1_Y890 (peptide)
chain: QHVPDYRQNVY
inactive: SHP2 C-SH2 domain E139D 0.716 | [1] 0.692 | SHP2 N-SH2 domain L43F 0.732 | SHP2 N-SH2 domain T42A 0.615 | SHP2 N-SH2 domain T52S 0.709 | [2] 0.811

B22: PBRM1_Y1610_I1614N (peptide)
chain: LHSEAYLKYNE
inactive: SHP2 C-SH2 domain E139D 1.06 | [1] 0.687 | SHP2 N-SH2 domain L43F 0.797 | SHP2 N-SH2 domain T42A 0.683 | SHP2 N-SH2 domain T52S 0.648 | [2] 0.629

B23: PCDHGA1_Y895_V894G (peptide)
chain: YRQNGYIPGSN
inactive: SHP2 C-SH2 domain E139D 0.581 | [1] 0.545 | SHP2 N-SH2 domain L43F 0.599 | SHP2 N-SH2 domain T42A 0.501 | SHP2 N-SH2 domain T52S 0.613 | [2] 0.581

B24: PCCA_Y401_R399Q_YF (peptide)
chain: VECQVYAEDPF
inactive: SHP2 C-SH2 domain E139D 1.11 | [1] 1.02 | SHP2 N-SH2 domain L43F 0.87 | SHP2 N-SH2 domain T42A 0.683 | SHP2 N-SH2 domain T52S 0.752 | [2] 1.43

B25: PBRM1_Y1289_E1287Q_YF (peptide)
chain: VDDQIYFFRKP
inactive: SHP2 C-SH2 domain E139D 0.741 | [1] 0.665 | SHP2 N-SH2 domain L43F 0.661 | SHP2 N-SH2 domain T42A 0.672 | SHP2 N-SH2 domain T52S 0.652 | [2] 0.711

B26: PCDHGA1_Y895_YF (peptide)
chain: FRQNVYIPGSN
inactive: SHP2 C-SH2 domain E139D 0.743 | [1] 0.656 | SHP2 N-SH2 domain L43F 0.735 | SHP2 N-SH2 domain T42A 0.64 | SHP2 N-SH2 domain T52S 0.729 | [2] 0.794

B27: PCDHGA1_Y890_V894G (peptide)
chain: QHVPDYRQNGY
inactive: SHP2 C-SH2 domain E139D 0.662 | [1] 0.669 | SHP2 N-SH2 domain L43F 0.664 | SHP2 N-SH2 domain T42A 0.551 | SHP2 N-SH2 domain T52S 0.576 | [2] 0.712

B28: PDE4DIP_Y45_I49T (peptide)
chain: SREDIYKRNTE
inactive: SHP2 C-SH2 domain E139D 0.783 | [1] 0.785 | SHP2 N-SH2 domain L43F 0.766 | SHP2 N-SH2 domain T42A 0.702 | SHP2 N-SH2 domain T52S 0.607 | [2] 0.871

B29: PDE6B_Y212 (peptide)
chain: DVFLKYLNFAT
active: SHP2 N-SH2 domain T42A 4.59
inactive: SHP2 C-SH2 domain E139D 2.13 | [1] 1.94 | SHP2 N-SH2 domain L43F 2.23 | SHP2 N-SH2 domain T52S 3 | [2] 2.22

B30: PDCD6IP_Y727 (peptide)
chain: IPTPAYQSSPA
inactive: SHP2 C-SH2 domain E139D 0.84 | [1] 0.818 | SHP2 N-SH2 domain L43F 0.763 | SHP2 N-SH2 domain T42A 0.656 | SHP2 N-SH2 domain T52S 0.751 | [2] 0.805

B31: PAX2_Y73_R71T (peptide)
chain: ILGTYYETGSI
inactive: SHP2 C-SH2 domain E139D 1.33 | [1] 1.13 | SHP2 N-SH2 domain L43F 0.81 | SHP2 N-SH2 domain T42A 1.29 | SHP2 N-SH2 domain T52S 1.27 | [2] 1.18

B32: PDE6B_Y227 (peptide)
chain: IYHLSYLHNCE
inactive: SHP2 C-SH2 domain E139D 2.57 | [1] 2.49 | SHP2 N-SH2 domain L43F 2.11 | SHP2 N-SH2 domain T42A 2.12 | SHP2 N-SH2 domain T52S 2.22 | [2] 2.59

B33: PAX5_Y179_G183V (peptide)
chain: SAGSSYSISVI
inactive: SHP2 C-SH2 domain E139D 0.701 | [1] 0.617 | SHP2 N-SH2 domain L43F 0.716 | SHP2 N-SH2 domain T42A 0.601 | SHP2 N-SH2 domain T52S 0.565 | [2] 0.504

B34: PCCA_Y401_C398R_YF (peptide)
chain: VERRVYAEDPF
inactive: SHP2 C-SH2 domain E139D 0.634 | [1] 0.411 | SHP2 N-SH2 domain L43F 0.778 | SHP2 N-SH2 domain T42A 0.505 | SHP2 N-SH2 domain T52S 0.57 | [2] 0.701

B35: PCDHGA5_Y753_S754A (peptide)
chain: AFLQTYAHEVS
inactive: SHP2 C-SH2 domain E139D 1.02 | [1] 0.871 | SHP2 N-SH2 domain L43F 2.43 | SHP2 N-SH2 domain T42A 0.923 | SHP2 N-SH2 domain T52S 2.48 | [2] 0.917

B36: PAX5_Y179_G183S (peptide)
chain: SAGSSYSISSI
inactive: SHP2 C-SH2 domain E139D 0.843 | [1] 0.855 | SHP2 N-SH2 domain L43F 0.776 | SHP2 N-SH2 domain T42A 0.704 | SHP2 N-SH2 domain T52S 0.822 | [2] 0.927

B37: PBRM1_Y1289_YF (peptide)
chain: VDDEIYFFRKP
inactive: SHP2 C-SH2 domain E139D 0.63 | [1] 0.719 | SHP2 N-SH2 domain L43F 0.658 | SHP2 N-SH2 domain T42A 0.913 | SHP2 N-SH2 domain T52S 0.861 | [2] 1.13
